The source of these data is the supplement of paper PMC11417369.

This is one part of the list.

The assay has as its system PfHDP1 homeodomain (GST-tagged). The experiment in a line: gcPBM binding intensity (ln(normalized median fluorescence intensity)); higher = stronger DNA binding. The procedure, abridged:
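Using an Agilent 4 × 180k array, primer-extended double-stranded 36-bp intergenic genomic probes and negative controls were exposed for 1 h to GST-fused P. falciparum DNA-binding domains expressed in E. coli. Binding was carried out in 1× PBS with 1% milk, 0.2 mg/ml BSA, 0.5% salmon testes DNA and 0.03% Triton X-100, and protein was detected with Alexa488 anti-GST antibody and a 488 nm scan. Binding intensity is the highest Masliner-normalised natural-log median intensity across replicate spots of either probe orientation.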
As for “TATTATTATTATTACACACACAATTATATTTACCCC [CACACA_site503]”, the “gcPBM binding intensity (ln)” value was 7.46.
Take TCGTGGTTTTAATAAGTGCGCAATTTAAATATTTTT: the “gcPBM binding intensity (ln)” value was determined as 9.8.
In the case of “GTATATATATATATATATATATATTTTTATTTATTT [CACACA_negctrl_site589]”, the “gcPBM binding intensity (ln)” value was determined as 7.23.
Regarding “AATATAAGTAGTACAGTGCATATAATAATTAGAAGA [GTGCAC_site9485]”, the “gcPBM binding intensity (ln)” value worked out at 9.29.
As to “CCATAAAAAGGATACACACACACACGCACATATATA [CACACA_site6550]”, the “gcPBM binding intensity (ln)” value is 7.22.
The result for “TTGATTTATATTTAATGTACATTTTTACAGAAAATT [XGTACX_site2747]” reads 6.47.
As to “GATTAAACACAAAGAAGTACGGACATAAAAAAAAAA [XGTACX_site3686]”, the “gcPBM binding intensity (ln)” value came out at 6.12.
For “ACATGTTAACTAAATGTACACACCTATGTTGATGTA [CACACA_site1821]”, the “gcPBM binding intensity (ln)” value turned out to be 6.59.
The result for “TTTACTCCTACAACATGTACATAAAATAAATTTTTT [XGTACX_site5010]” reads 7.12; that for “TTATTTACAACTTTTTTTTTTTTATTTTATTTTATT [CACACA_negctrl_site341]”, 6.33.
Take “ACATAGCAATGTTTCACACACAAGAAAAAATACAAT [CACACA_site2379]”: the “gcPBM binding intensity (ln)” value turned out to be 6.98.
The same measure for “GAAATGTGGTAATATACACACACGCATATATTTATA [CACACA_site6285]”: 6.54; for “TTTGAACTCTTAAGTGGTACAAATTTGTATTTTCTC [XGTACX_site2322]”: 6.52.
The result for “TATAAATAAAAATATACACACTGTATTATTGTAATA [CACACA_site7721]” reads 6.24; that for “AATGGAATATATATTTGTACATAAATATTATAATAA [XGTACX_site8524]”, 6.57.
The result for “ACATATTATATAACTCGTACTCGTAAAATATGTTGT [XGTACX_site2240]” reads 6.63; that for “TTCTTCTGTTTTATTACACACCATTTTGCGTATACA [CACACA_site2070]”, 7.65; that for “GTTCTTTTATATATTTGTACATATTTATATATATTG [XGTACX_site4078]”, 7.18.
For “GTCATAAATGTACGCACACATACATAAACATATACA [CACACA_site650]”, the “gcPBM binding intensity (ln)” value came to 7.24.
The result for “CATTCTTGTTTAAAAAGTACATAAACATATATATAT [XGTACX_site1751]” reads 8.22; that for “TAAATTAATATGTATCGTACAATATATAAAACGATG [XGTACX_site2818]”, 6.53; that for “AAATATAAAATTTATTGTACATTATATATAATATAT [XGTACX_site1416]”, 6.31.
The same measure for “TATTATAATATTTATACACACATAATTTTGATAAAT [CACACA_site583]”: 6.45; for “TGATATATTTATATTACACACTTAAACGAAAAAAAA [CACACA_site3021]”: 6.54; for “ATATATATATTATATGCACACGTTAAAATTTCATAT [CACACA_site4552]”: 10.3.
The result for “TAAAAATATTAATAAACACACAATGAGATATTGAAT [CACACA_site3153]” reads 6.21; that for “ATATTATATATATAGGTGCGAGTATTTTATAAATAT [GTGCAC_site9889]”, 6.93; that for “TAAGTATACACATACACACACACACTAATAAAAAAA [CACACA_site8035]”, 6.81.
Turning to “TATACACCCGGACACACACACATATATATATATATA [CACACA_site5030]”, the “gcPBM binding intensity (ln)” value is 9.36.
For the sequence “AAAAAAAAAAAAATCACACACAATATGAATTTATAG [CACACA_site601]”, the “gcPBM binding intensity (ln)” value is 6.14.
As to “AATACAATTTCTAGCACACAAAATATTATTATAATT [CACACA_site3223]”, the “gcPBM binding intensity (ln)” value came out at 6.5.
The result for “AAAAAACAATCTCATACACACTAGGGATTAATTATT [CACACA_site5051]” reads 6.31; that for “TATAGAAGCGTTCACACACACACATACATACCCATA [CACACA_site4915]”, 6.97.
The result for “TTATATATATTTAAATTTTATCTCACATATATATAT [TGCATGCA_negctrl_site275]” reads 8.34; that for “TCCCTAAAAAATGATAAATGGAGACAATTCCGACAA [GTGCAC_negctrl_site209]”, 6.16.
For the sequence “ATATATATAACATATACACACGTTCATATATATATA [CACACA_site4416]”, the “gcPBM binding intensity (ln)” value was 8.66.
For “TTACAAGTAAAAGGTACACACATTATATATACAAAT [CACACA_site8290]”, the “gcPBM binding intensity (ln)” value is 6.75.
The result for “TAATTTTTATTTTATTTTATTTTTTTTTTTTTTATT [CACACA_negctrl_site1671]” reads 5.95; that for “TATAAAAAATAAAAAGTTTAATGAATATTTCTTTTA [TGCATGCA_negctrl_site379]”, 5.53.
The result for “TCACATGGAAAAAAGTGTACATAATTATGTATAAAT [XGTACX_site2827]” reads 6.89; that for “ACAAGACAGATATATACACACATACATACATACATA [CACACA_site7472]”, 7.03.
The same measure for “TTTAACTTATTCAATGCACACATTTTAATAAGATAT [CACACA_site1967]”: 8.41; for “TTTCTTAAAAAAAAAAAAAAAAGAAGATAAATAAAA [CACACA_negctrl_site289]”: 5.97.
For “ATATTTATTTATATTACACACATGTGCAATTAAACT [CACACA_site6928]”, the “gcPBM binding intensity (ln)” value is 10.7.
As to “CTAGCAAATACATACACACACACACCGATACATATA [CACACA_site9164]”, the “gcPBM binding intensity (ln)” value worked out at 7.03.
Regarding “ATGGATAACAATATGTGTACACATTTATATCTCCAC [XGTACX_site5457]”, the “gcPBM binding intensity (ln)” value was determined as 6.72.
The same measure for “ATACATTTTTTTTATACGCACACGTCATACTTTTAA [CACACA_site1638]”: 7.53; for “AAGCATGGATATTTTACACACATTTCCACGTAACAA [CACACA_site3141]”: 6.36.
As for “ATATAATAGAAGTGTACACACATATTTATGTCTGTA [CACACA_site3121]”, the “gcPBM binding intensity (ln)” value was found to be 6.74.
The same measure for “ATATTTTTTGGAAAGTGTACAATATTATATATTAAA [XGTACX_site2163]”: 6.18.
The result for “GAAATACCGGAAAGCAAACACACATTTTAAAACCAT [CACACA_site3861]” reads 6.73; that for “ATACATATATATAGGTGTACATATAATATATATATA [XGTACX_site2228]”, 8.33.
For “AACCATGTTAACAATGCATGCATCACTATATAAACG [TGCATGCA_site421]”, the “gcPBM binding intensity (ln)” value came out at 7.07.
Consider “TTTAATTTTACATGAGAAACATATTACAATAAAATA [GTGCAC_negctrl_site606]”, for which the “gcPBM binding intensity (ln)” value turned out to be 6.15.
The result for “TGACTTTGTTGAATTTGTCCTCTTAACTCATAATAT [GTGCAC_negctrl_site217]” reads 6.21; that for “TTCTGTGTCTAAAAATGTACGGGAATATATAAAAGT [XGTACX_site2090]”, 7.37.
